# From publication PMC4336329 (PLoS ONE, 2015)
# In all, about 310,000 compounds went through this assay and about 14,000 (4.5%) showed an effect of 50% or more. Effects have a minus sign here. Some of the results follow.
# Target: human ether-à-go-go-related gene (hERG) potassium channel (human, UniProt Q12809)
# Test: primary screen, population patch clamp on CHO cells stably expressing hERG
# 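Further: peak tail current of the secondary pulse compared with the same well before compound.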
# human ether-à-go-go-related gene (hERG) potassium channel, sequence (Q12809 whole entry, looked up): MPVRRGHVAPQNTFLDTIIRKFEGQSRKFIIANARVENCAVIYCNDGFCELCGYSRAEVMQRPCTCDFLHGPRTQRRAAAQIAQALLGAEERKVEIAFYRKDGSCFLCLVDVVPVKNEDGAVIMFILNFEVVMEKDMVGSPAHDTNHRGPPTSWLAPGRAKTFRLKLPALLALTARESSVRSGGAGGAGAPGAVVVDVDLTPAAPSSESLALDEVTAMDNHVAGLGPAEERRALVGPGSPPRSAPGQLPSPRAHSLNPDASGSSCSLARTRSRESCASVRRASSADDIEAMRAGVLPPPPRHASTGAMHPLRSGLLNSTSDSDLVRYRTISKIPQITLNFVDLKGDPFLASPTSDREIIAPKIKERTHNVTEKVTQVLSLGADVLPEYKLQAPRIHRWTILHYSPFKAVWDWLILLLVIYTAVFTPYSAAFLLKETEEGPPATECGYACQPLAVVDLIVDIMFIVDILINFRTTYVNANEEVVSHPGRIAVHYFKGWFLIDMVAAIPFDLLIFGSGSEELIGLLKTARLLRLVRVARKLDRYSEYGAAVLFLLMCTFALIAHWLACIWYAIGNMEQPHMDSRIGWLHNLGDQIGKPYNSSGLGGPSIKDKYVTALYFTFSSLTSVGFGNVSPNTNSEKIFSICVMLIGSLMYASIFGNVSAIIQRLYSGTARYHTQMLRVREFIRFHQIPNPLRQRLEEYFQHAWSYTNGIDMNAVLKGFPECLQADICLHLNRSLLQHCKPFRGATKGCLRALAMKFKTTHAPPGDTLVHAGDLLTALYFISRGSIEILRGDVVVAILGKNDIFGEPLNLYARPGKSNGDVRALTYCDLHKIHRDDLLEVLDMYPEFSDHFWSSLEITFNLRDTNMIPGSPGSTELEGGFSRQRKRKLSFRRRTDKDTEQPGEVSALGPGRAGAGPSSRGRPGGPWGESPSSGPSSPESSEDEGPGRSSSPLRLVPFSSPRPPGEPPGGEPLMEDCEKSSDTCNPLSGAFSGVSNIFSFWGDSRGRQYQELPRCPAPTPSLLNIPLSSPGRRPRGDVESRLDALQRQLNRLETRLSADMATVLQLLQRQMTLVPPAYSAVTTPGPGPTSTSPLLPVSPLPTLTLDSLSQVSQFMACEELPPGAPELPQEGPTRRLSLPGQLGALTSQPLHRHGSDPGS
row,SMILES,"hERG current change (%, negative = inhibition) at 10uM"
1,CCn1c(CC(=O)Nc2ccc(Cl)c(Cl)c2)nnc1SCc1ccc(C)cc1,27.4%
2,CC(C(=O)Nc1cccc([N+](=O)[O-])c1)N1C(=O)NC2(CCCC2)C1=O (centres unmarked),15.7%
3,COc1ccc(S(=O)(=O)N2CCCCC2)cc1NC(=O)c1ccc(=O)[nH]c1,-12.2%
4,Cn1c(=O)c2c(nc(Oc3ccc4c(c3)OCO4)n2Cc2ccc(Br)cc2)n(C)c1=O,1.82%
5,CC(C)c1ccc(/C=N/NC(=O)c2nnn(-c3nonc3N)c2CSC2=NCCS2)cc1,17.9%
6,O=C(NCc1ccccn1)C1CCC(=O)N(Cc2ccc(Cl)cc2)C1 (centres unmarked),18.7%
7,c1cn2cc(CSC3CCCCC3)nc2s1,-2.82%
8,O=C(CN(c1ccccc1)S(=O)(=O)c1ccccc1[N+](=O)[O-])N1CCCC1,3.51%
9,CCCCOC(=O)C1=C(C)Nc2ncnn2C1c1ccc(OCC)c(OC)c1 (centres unmarked),-10.5%
10,O=C(CSc1nc(C2CCCCC2)n(-c2ccccc2)n1)NCCN1C(=O)CSC1=O,-15.7%
11,Nc1ccc(S(=O)(=O)NC2=NCCCCC2)cc1,19.3%
12,O=C(Cc1ccc(S(=O)(=O)N2CCOCC2)s1)NCCOc1ccccc1F,-8.5%
13,COC(=O)C1=C(c2ccccc2)C[C@@H]2CC[C@H]1N2C(=O)NCc1cccc2ccccc12,-12.2%
14,CC(C(=O)O)C1SC(=O)NC1=O (centres unmarked),6.11%
15,O=C1NCCCCC1NS(=O)(=O)c1cccc(C(F)(F)F)c1 (centres unmarked),1.19%
16,O=S1(=O)CCOC[C@H](Cc2ccccc2)N1Cc1cccc(F)c1,-26.7%
17,Cc1ccccc1NC(=O)c1ccc(F)c(S(=O)(=O)N2CCN(c3ccccn3)CC2)c1,2.08%
18,COC(=O)CNc1nc(-c2ccncc2)nc2ccccc12,1.71%
19,CSc1ncccc1C(=O)OCC(=O)NC(=O)NCCC(C)C,0.954%
20,Cc1ccc(OCCCn2ccnc2)c([N+](=O)[O-])c1,-34.4%
21,COc1cc(C2CC(=O)c3cnc(NC(=O)c4ccco4)nc3C2)cc(OC)c1OC (centres unmarked),6.39%
22,O=C(Nc1cccc2ccccc12)NC1CCCCC1O (centres unmarked),0.227%

row,SMILES,"hERG current change (%, negative = inhibition) at 10uM"
1,CCc1nc2c(n1O)CCc1nonc1-2,4.58%
2,C/C(=N/NC(=O)c1ccccc1O)c1ccc(N2C(=O)C3CCCCC3C2=O)cc1 (centres unmarked),14.7%
3,CC(=O)N1CCc2cc(S(=O)(=O)NC(C(=O)NC3CCCc4ccccc43)C(C)C)ccc21 (centres unmarked),10%
4,CCOc1ccc2nc(SCC3CC3(Cl)Cl)[nH]c2c1 (centres unmarked),-5.08%
5,O=C(CC1CC2CCC1C2)NCc1cccs1 (centres unmarked),2.09%
6,COc1ccccc1C(=O)COC(=O)c1ccccc1OCC(=O)Nc1ccc(SC(F)F)cc1,12.6%
7,Cc1ccc(S(=O)(=O)NCC(=O)OCC(=O)c2ccc(Cl)s2)cc1,1.12%
8,COc1ccc2c(c1OC)C(=O)N1C2SC[C@H]1C(=O)NC1CCCC1 (some centres unmarked),6.57%
9,Cc1ccc(SCCNC(=O)c2ccccc2)cc1,-0.806%
10,Cc1c(C2OC(=O)C3(CCCCC3)C(=O)C2(C)C)c(=O)n(-c2ccccc2)n1C (centres unmarked),-5.45%
11,O=C(CCOc1ccccc1)Nc1ccnn1C1CCN(Cc2ccc(CO)o2)CC1,6.52%
12,Cc1ccc(N2CC(C(=O)N3CCC(C(=O)NC(C)(C)C)CC3)CC2=O)cc1 (centres unmarked),20.2%
13,CC(C)Cn1nnc2c(=O)oc3ccccc3c21,-7.26%
14,CCN(CCO)c1ncnc2onc(-c3ccc(F)cc3)c12,16.9%
15,COc1ccc(N2C(=S)N=C(Nc3cccc(C)c3)C23CCCCC3)cc1,15.7%
16,Cc1ccccc1NC(=S)NCc1cccn1C,9.48%
17,CCOC(=O)c1c(S(=O)(=O)Nc2ccc(F)cc2Cl)c(C)n(C)c1C,8.34%
18,CC1S/C(=N/N=C2CCCCC2)NC1=O (centres unmarked),24.4%
19,COc1ccc(S(=O)(=O)N2CCCN(C)CC2)cc1.Cl,1.55%
20,CN(CCNC(=O)C1CCN(c2ncnc3c2nc2n3CCCCC2)CC1)Cc1ccccc1,-15.5%
21,Cc1cnc(NC(=O)Cc2ccccc2F)s1,19.4%
22,CC1CCCCC12NC(=O)N(CC(=O)OCC(=O)NC(=O)c1ccccc1)C2=O (centres unmarked),5.39%
